In all, about 310,000 compounds went through this assay and about 14,000 (4.5%) showed an effect of 50% or more. Effects have a minus sign here. This is one part of the list.
target: human ether-à-go-go-related gene (hERG) potassium channel (human, UniProt Q12809); assay: primary screen, population patch clamp on CHO cells stably expressing hERG
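Further: peak tail current of the secondary pulse compared with the same well before compound.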

Chain of human ether-à-go-go-related gene (hERG) potassium channel (Q12809 whole entry, looked up): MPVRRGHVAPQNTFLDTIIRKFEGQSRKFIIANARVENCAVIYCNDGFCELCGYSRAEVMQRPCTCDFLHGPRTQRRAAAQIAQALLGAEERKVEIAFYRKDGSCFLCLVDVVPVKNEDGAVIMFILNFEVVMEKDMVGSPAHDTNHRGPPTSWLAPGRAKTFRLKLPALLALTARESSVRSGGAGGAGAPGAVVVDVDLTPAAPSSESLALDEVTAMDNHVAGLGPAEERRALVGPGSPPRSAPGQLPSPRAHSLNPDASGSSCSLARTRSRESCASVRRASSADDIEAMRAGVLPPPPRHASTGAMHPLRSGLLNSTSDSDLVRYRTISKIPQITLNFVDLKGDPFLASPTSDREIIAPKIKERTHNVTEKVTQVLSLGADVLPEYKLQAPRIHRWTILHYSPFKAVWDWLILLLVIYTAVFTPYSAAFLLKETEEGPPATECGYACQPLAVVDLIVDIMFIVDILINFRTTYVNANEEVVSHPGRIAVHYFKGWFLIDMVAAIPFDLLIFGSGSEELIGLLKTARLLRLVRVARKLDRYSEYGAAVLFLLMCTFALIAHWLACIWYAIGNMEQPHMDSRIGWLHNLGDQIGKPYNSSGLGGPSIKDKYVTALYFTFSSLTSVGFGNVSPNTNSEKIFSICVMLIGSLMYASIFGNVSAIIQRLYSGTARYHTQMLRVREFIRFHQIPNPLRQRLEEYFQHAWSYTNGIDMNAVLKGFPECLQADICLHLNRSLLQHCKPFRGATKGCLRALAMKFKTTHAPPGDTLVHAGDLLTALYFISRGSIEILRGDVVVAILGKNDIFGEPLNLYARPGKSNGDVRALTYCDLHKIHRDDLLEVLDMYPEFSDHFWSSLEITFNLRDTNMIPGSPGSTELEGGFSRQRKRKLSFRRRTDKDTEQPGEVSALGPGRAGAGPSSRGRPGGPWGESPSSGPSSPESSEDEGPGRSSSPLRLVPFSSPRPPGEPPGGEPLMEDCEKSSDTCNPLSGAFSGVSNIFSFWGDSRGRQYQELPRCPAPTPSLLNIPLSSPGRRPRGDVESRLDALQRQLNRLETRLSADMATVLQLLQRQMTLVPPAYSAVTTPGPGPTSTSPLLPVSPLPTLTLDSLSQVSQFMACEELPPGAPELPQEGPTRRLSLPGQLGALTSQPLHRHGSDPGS

Point of comparison: CC1(C)NC(=O)N(CC(O)COc2ccccc2C(=O)N2CCCCC2)C1=O (centres unmarked), “hERG current change (%, negative = inhibition) at 10uM” value -0.085%. Against it:
- O=C(Nc1nccs1)c1cc(N2CCOCC2)nc2ccccc12 — lower, -4.9%
- CCc1ccc(OCC(=O)O/N=C(\N)c2cccnc2)cc1 — lower, -0.434%
- NC(=O)c1cc(S(=O)(=O)N2CCOCC2)cs1 — higher, 19.3%
- Cn1nnnc1SCC(=O)N1CCN(C(=O)c2ccco2)CC1 — lower, -9.62%
- CC(=O)NCCc1ccc(S(=O)(=O)NCc2ccc3c(c2)OCO3)cc1 — higher, 2.45%
- CCc1nnc(NC(=O)CSc2nnc(C)n2-c2ccc(C)cc2)s1 — lower, -0.562%
- O=C(CSc1c(Cl)cccc1Cl)NC1CCCc2ccccc21 (centres unmarked) — higher, 1.5%
- c1ccc2nc(N3CCCC3)c(N3CCCC3)nc2c1 — higher, 7.86%
- C=CCSc1nc2c(c(=O)[nH]1)C(c1ccccc1)C(C#N)=C(N)O2 (centres unmarked) — higher, 2.58%
- OC1CCN(Cc2ccc(OCc3ccccc3)cc2)CC1 — lower, -5.07%
- Cn1ccnc1C(O)c1cccc(OCc2ccccc2)c1 (centres unmarked) — lower, -0.621%
- CC1CCCC(C)N1C(=O)COC(=O)c1ccc(F)c(S(=O)(=O)N2CCOCC2)c1 (centres unmarked) — higher, 9.83%
- NS(=O)(=O)c1cccc(NC(=O)CSc2nc3ccccc3n2-c2ccccc2)c1 — higher, 13.2%
- O=C(CSc1ccc(F)cc1)Nc1ccc(Br)cc1 — higher, 16.2%
- COc1ccc(C(=O)NNC(=O)CCn2nnc(-c3ccc(Cl)cc3)n2)cc1OC — higher, 19%
- COc1ccccc1NS(=O)(=O)c1cccc(NC(=O)c2nc3nc(C)cc(C)n3n2)c1 — lower, -55.2%
- CCCn1c(C)cc(C(=O)CN2C(=O)c3cccc(N)c3C2=O)c1C — lower, -1.83%
- C[C@@H](NC(=O)[C@@H]1Cc2ccccc2CN1C(=O)OC(C)(C)C)C(=O)NC1CCCC1 — lower, -7.3%
- CC(C)(O)[C@H]1O[C@H]2CC[C@@]3(C)[C@@](O)(CC[C@H]4Cc5c([nH]c6ccccc56)[C@@]43C)C2=CC1=O — higher, 15.2%
- CCn1c(=O)c2cc(C(=O)Nc3ccc(OC)cc3OC)sc2c2ccccc21 — higher, 6.99%
- CCC(C)(C)C1CCc2nc3ccccc3c(C(=O)OC(C)C(=O)Nc3c(C)n(C)n(-c4ccccc4)c3=O)c2C1 (centres unmarked) — higher, 7.37%
- O=C(c1nnc(-c2ccc(Cl)cc2)o1)C1CCCC1 — higher, 20.2%
- O=C1S/C(=C\C=C\c2ccco2)C(=O)N1c1ccc(O)cc1 — higher, 12.1%
- COc1ccc2c(c1)O[C@@]1(CCCC[C@@H]1C)CC2=O — lower, -1.09%
- CCC(=O)NC(=S)NNC(=O)c1ccccc1[N+](=O)[O-] — higher, 21.2%
- CN1CCN(C(=O)CCc2nc3ccccc3c(=O)[nH]2)CC1 — higher, 21.9%
- COc1ccc(/[N+]([O-])=C/c2ccoc2)cc1 — higher, 18.9%
- Cc1ccc(NC(=O)CSc2nnc(CNC(=O)c3c(F)cccc3Cl)o2)cc1 — higher, 3.28%
- CC(C)c1ccc(NC(=O)C(c2ccccc2)N2CCOCC2)cc1 (centres unmarked) — lower, -12.2%
- O=S(=O)(c1ccc(F)c(F)c1F)N1CCN(C(=S)NCc2ccccc2)CC1 — higher, 21.3%
- COc1cc(-c2cc3nc4ccccc4n3c(N)c2C#N)cc(OC)c1OC — lower, -12.9%
- O=C(N/N=C/c1ccc(-c2cccc(C(F)(F)F)c2)o1)c1ccccc1Br — higher, 3.21%
- O=C(c1ccco1)N1CCN(Cc2nnc(-c3ccccc3)o2)CC1 — lower, -55.5%
- O=C(c1ccco1)N1CCN(Cc2cc(=O)c(OCc3ccc([N+](=O)[O-])cc3)co2)CC1 — lower, -76.2%
- N#C/C(=C\c1ccc(-c2cccc([N+](=O)[O-])c2)o1)C(=O)N1CCOCC1 — lower, -6.75%
- Cc1cc(C)cc(-n2c(=O)c3sccc3n(CC(=O)NCc3ccco3)c2=O)c1 — lower, -9%
- COc1ccccc1C(=O)Nc1ccc2c(c1)nc(CCNC(=O)c1ccccc1)n2C — lower, -10.4%
- CC1(C)CC(C(CC(=O)Nc2nccs2)c2ccccc2)CCO1 (centres unmarked) — higher, 14.5%
- COc1cc(OC)cc(C(=O)NC2CCN(C(=O)N3c4ccccc4Sc4ccccc43)CC2)c1 — higher, 19.5%
- CC(=O)Nc1ccc(N=NN2CCOCC2)cc1 — higher, 9.81%
- Cc1ccc(-c2ccc(C(=O)O)[nH]2)cc1 — lower, -19.1%
- CCCC(=O)Nc1nn(C)c2nc3cc(C)ccc3cc12 — lower, -4.77%
- O=C(CSc1nccn1-c1cccc(Cl)c1)NC1CCCC1 — higher, 1.72%
- COC(=O)C(Cc1ccccc1)NC(=S)NC(=O)c1ccccc1 (centres unmarked) — higher, 4.48%
- Cc1cc(=O)oc2c1ccc1ccccc12 — higher, 18.7%
- Cc1cc(NC(=O)CSc2nnc(-c3ccncc3)n2-c2ccccc2)no1 — higher, 28.1%
- COCCNC(=O)C1CCN(S(=O)(=O)c2ccc3c(c2)OCCO3)CC1 — higher, 6.57%
- CC(=O)/C(=C(/O)c1ccccc1)c1nc2ccccc2[nH]1 — higher, 4.78%
- Cc1c(N=C2NC(=O)/C(=C/c3ccc(O)cc3)S2)c(=O)n(-c2ccccc2)n1C — higher, 6.71%
- COc1ccc(C(=O)Cn2c(C)nc([N+](=O)[O-])c2Br)cc1 — lower, -18.7%
- COc1ccc(CC(=O)Nc2ccc(/C(C)=N/NC(=O)c3ccc(OC)cc3OC)cc2)cc1 — higher, 28.2%
- COc1ccccc1-n1c(SCC(N)=O)nnc1-c1ccccc1 — lower, -9.6%
- COc1cccc(C(=O)Nc2cccc(C(=O)NCC(C)C)c2)c1 — lower, -42.5%
- C=CCNC(=S)Nc1ccc(C(N)=O)cc1 — higher, 20.3%
- Nc1nc(SCC(=O)Nc2ccc([N+](=O)[O-])cc2)[nH]c(=O)c1NC(=O)c1ccc(Br)o1 — higher, 17.1%

From article PMC4336329 (PLoS ONE, 2015)
